# From patent publication US9873709B2 (priority 2013, dated 2018)
# Target: isolated recombinant JAK1 kinase domain (Homo sapiens (Human), UniProt P23458)
# Details: read-out: JAK1 Ki; isolated recombinant JAK1 kinase domain, 25 μM ATP
row,Structure (SMILES),Ki
1,"Cc1ccnc(CNC(=O)c2ccc(Nc3nc4c(N5CCC(O)(c6ccc(Cl)cc6)CC5)cccn4n3)cc2)c1 [Example 1-63, 4-[[8-[4-(4-chlorophenyl)-4-hydroxy-1-piperidyl]-[1,2,4]triazolo[1,5-a]pyridin-2-yl]amino]-N-[(4-methyl-2-pyridyl)methyl] benzamide]",4.13 nM
2,"Cc1ncccc1CNC(=O)c1ccc(Nc2nc3c(N4CCC(O)(c5ccc(Cl)cc5)CC4)cccn3n2)cc1 [Example 1-64, 4-[[8-[4-(4-chlorophenyl)-4-hydroxy-1-piperidyl]-[1,2,4]triazolo[1,5-a]pyridin-2-yl]amino]-N-[(2-methyl-3-pyridyl)methyl] benzamide]",2.27 nM
3,"CN1CCCC2(CCCN(C(=O)c3ccc(Nc4nc5c(N6CCC(O)(c7ccc(Cl)cc7)CC6)cccn5n4)cc3)C2)C1 (stereo not shown) [Example 1-66, [4-[[8-[4-(4-chlorophenyl)-4-hydroxy-1-piperidyl]-[1,2,4]triazolo[1,5-a]pyridin-2-yl]amino]phenyl]-(8-methyl-2,8-diazaspiro[5.5]undecan-2-yl)methanone]",2.22 nM
4,"Cn1ccnc1CN1CCN(C(=O)c2ccc(Nc3nc4c(N5CCC(O)(c6ccc(Cl)cc6)CC5)cccn4n3)cc2)CC1 [Example 1-67, [4-[[8-[4-(4-chlorophenyl)-4-hydroxy-1-piperidyl]-[1,2,4]triazolo[1,5-a]pyridin-2-yl]amino]phenyl]-[4-[(1-methylimidazol-2-yl)methyl]piperazin-1-yl]methanone]",3.41 nM
5,"O=C(c1ccc(Nc2nc3c(N4CCC(O)(c5ccc(Cl)cc5)CC4)cccn3n2)cc1)N1CCCC1c1cccnc1 (stereo not shown) [Example 1-68, [4-[[8-[4-(4-chlorophenyl)-4-hydroxy-1-piperidyl]-[1,2,4]triazolo[1,5-a]pyridin-2-yl]amino]phenyl]-[2-(3-pyridyl)pyrrolidin-1-yl]methanone]",2.16 nM
6,"CN(C)C(=O)C1(c2ccncc2)CCCN1C(=O)c1ccc(Nc2nc3c(N4CCC(O)(c5ccc(Cl)cc5)CC4)cccn3n2)cc1 (stereo not shown) [Example 1-74, 1-[4-[[8-[4-(4-chlorophenyl)-4-hydroxy-1-piperidyl]-[1,2,4]triazolo[1,5-a]-pyridin-2-yl]amino]benzoyl]-N,N-dimethyl-2-(4-pyridyl)pyrrolidine-2-carboxamide]",1.34 nM

# Further lines, results first:
row,Ki,Structure (SMILES)
1,2.34 nM,"CCN1CCC(CN(C)C(=O)c2ccc(Nc3nc4c(N5CCC(O)(c6ccc(Cl)cc6)CC5)cccn4n3)cc2)C1 (stereo not shown) [Example 1-65, 4-[[8-[4-(4-chlorophenyl)-4-hydroxy-1-piperidyl]-[1,2,4]triazolo[1,5-a]pyridin-2-yl]amino]-N-[(1-ethylpyrrolidin-3-yl)methyl]-N-methyl-benzamide]"
2,6.12 nM,"CN1CCN(C(=O)c2ccc(Nc3nc4c(N5CCC(O)(c6ccc(Cl)cc6)CC5)cccn4n3)cc2)CC(CO)C1 (stereo not shown) [Example 1-69, [4-[[8-[4-(4-chlorophenyl)-4-hydroxy-1-piperidyl]-[1,2,4]triazolo[1,5-a]pyridin-2-yl]amino]phenyl]-[6-(hydroxymethyl)-4-methyl-1,4-diazepan-1-yl]methanone]"
3,2.57 nM,"CN1CCOC2(C1)CN(C(=O)c1ccc(Nc3nc4c(N5CCC(O)(c6ccc(Cl)cc6)CC5)cccn4n3)cc1)C2 [Example 1-70, [4-[[8-[4-(4-chlorophenyl)-4-hydroxy-1-piperidyl]-[1,2,4]triazolo[1,5-a]pyridin-2-yl]amino]phenyl]-(8-methyl-5-oxa-2,8-diazaspiro[3.5]nonan-2-yl)methanone]"
4,4.5 nM,"CN(C)C(=O)C1CN(C(=O)c2ccc(Nc3nc4c(N5CCC(O)(c6ccc(Cl)cc6)CC5)cccn4n3)cc2)CCN1C (stereo not shown) [Example 1-71, 4-[4-[[8-[4-(4-chlorophenyl)-4-hydroxy-1-piperidyl]-[1,2,4]triazolo[1,5-a]pyridin-2-yl]amino]benzoyl]-N,N,1-trimethyl-piperazine-2-carboxamide]"
